Data as given in a compilation of properties of binary mixtures (doi:10.1007/s10953-021-01127-x).
Some of these densities may be calculated back from excess volumes.

Test: xn = mol fraction of the nth substance listed
Details: 100 kPa

CCCC[n+]1ccn(C)c1C.F[B-](F)(F)F + O=C1CCCN1
mass density [kg/m3]
Details	293.15 K	298.15 K	303.15 K	308.15 K
x1 = 0.0698	1129.3	1125.7	1122.1	1118.8
x1 = 0.1052	–	1133.4	1130	1127
x1 = 0.1469	–	–	1138.1	1135.3
x1 = 0.1948	1151.8	1149	–	1143.5
x1 = 0.2495	1159	1156.4	–	1151.5
x1 = 0.2945	1164	1161.5	1159.1	1157
x1 = 0.3428	1168.5	1166.2	1164.1	1162
x1 = 0.3964	1172.8	1170.6	–	1166.7
x1 = 0.4419	1175.9	–	1172.1	1170
x1 = 0.5004	1179.3	1177.2	1175.6	1173.6
x1 = 0.5563	1182	1179.9	1178.4	1176.4
x1 = 0.5949	1183.6	1181.5	1180	1178.1
x1 = 0.6419	–	1183.2	1181.7	1179.8
x1 = 0.6984	1187.1	1184.9	1183.3	1181.5
x1 = 0.7521	1188.6	–	1184.8	1182.9
x1 = 0.8031	–	1187.5	1185.9	1184.1
x1 = 0.8549	1190.9	1188.6	1187	1185
x1 = 0.9021	–	1189.5	1187.8	1185.8
x1 = 0.9564	1193	1190.5	–	1186.6
